In publication PMC4336329 (PLoS ONE, 2015):
Hit rate of the full screen: of about 310,000 compounds, about 14,000 (4.5%) showed an effect of 50% or more. Effects have a minus sign here. The list shows a part of the results.

What follows are compounds tested against human ether-à-go-go-related gene (hERG) potassium channel (human, UniProt Q12809) (assay: primary screen, population patch clamp on CHO cells stably expressing hERG).
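Also: peak tail current of the secondary pulse compared with the same well before compound.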

Sequence of human ether-à-go-go-related gene (hERG) potassium channel (Q12809 whole entry, looked up): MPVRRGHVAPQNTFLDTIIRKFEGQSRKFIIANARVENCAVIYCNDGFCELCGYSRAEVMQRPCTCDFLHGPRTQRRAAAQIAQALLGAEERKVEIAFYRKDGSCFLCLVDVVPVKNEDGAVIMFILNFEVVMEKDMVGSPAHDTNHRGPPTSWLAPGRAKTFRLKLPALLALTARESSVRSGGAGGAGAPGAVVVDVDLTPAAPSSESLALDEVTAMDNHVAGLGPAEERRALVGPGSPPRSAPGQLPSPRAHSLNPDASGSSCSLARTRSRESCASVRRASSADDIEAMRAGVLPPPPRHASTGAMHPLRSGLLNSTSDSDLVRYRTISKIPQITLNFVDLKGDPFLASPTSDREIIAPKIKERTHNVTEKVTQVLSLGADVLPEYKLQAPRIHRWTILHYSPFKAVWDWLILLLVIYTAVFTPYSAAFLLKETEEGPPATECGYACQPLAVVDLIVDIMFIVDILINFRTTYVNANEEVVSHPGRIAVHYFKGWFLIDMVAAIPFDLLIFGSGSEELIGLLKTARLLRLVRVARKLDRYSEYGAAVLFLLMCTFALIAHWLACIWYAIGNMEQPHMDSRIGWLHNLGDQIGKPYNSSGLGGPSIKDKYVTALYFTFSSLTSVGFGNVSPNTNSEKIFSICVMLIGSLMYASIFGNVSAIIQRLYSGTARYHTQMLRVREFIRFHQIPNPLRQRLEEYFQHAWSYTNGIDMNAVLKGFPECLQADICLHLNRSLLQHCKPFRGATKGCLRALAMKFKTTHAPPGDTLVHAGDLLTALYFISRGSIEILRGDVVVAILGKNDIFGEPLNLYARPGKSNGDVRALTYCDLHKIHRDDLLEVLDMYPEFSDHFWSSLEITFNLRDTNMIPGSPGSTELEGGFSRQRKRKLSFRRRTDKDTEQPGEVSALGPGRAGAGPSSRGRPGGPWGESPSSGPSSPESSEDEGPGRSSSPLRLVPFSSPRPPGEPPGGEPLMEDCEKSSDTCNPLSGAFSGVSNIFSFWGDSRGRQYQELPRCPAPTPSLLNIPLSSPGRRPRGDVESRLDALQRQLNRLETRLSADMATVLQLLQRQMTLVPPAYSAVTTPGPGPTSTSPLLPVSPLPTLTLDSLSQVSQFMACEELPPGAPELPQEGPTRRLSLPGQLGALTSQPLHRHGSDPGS

| SMILES | hERG current change (%, negative = inhibition) at 10uM [%] |
| --- | --- |
| O=C(O)CCCN1C(=O)/C(=C/c2ccncc2)SC1=S | 13.1 |
| Cc1c(Br)c([N+](=O)[O-])nn1C(C)C(=O)NCc1cccs1 (centres unmarked) | -17 |
| N#Cc1c(NC(=O)CN2CCN(C(=O)c3ccco3)CC2)sc2c1CCCCC2 | -32.9 |
| CN(CC(=O)Nc1cccc(F)c1)C(=O)c1ccc(N2CCOCC2)c([N+](=O)[O-])c1 | -35.7 |
| CCC(C(=O)N1CCN(S(C)(=O)=O)CC1)c1ccccc1 (centres unmarked) | -0.12 |
| Cc1ccc(NC(=O)N2CCC(C(=O)c3ccc(F)cc3)CC2)cc1 | -3.84 |
| CCOc1ccc(S(=O)(=O)Nc2cccc(C(=O)NCCCN3CCCC3=O)c2)cc1 | -4.82 |
| Cc1ccc(Nc2ccc([N+](=O)[O-])ccc2=O)cc1 | 16.2 |
| COc1ccc(Cl)cc1NC(=O)C12CCC(C)(C(=O)O1)C2(C)C (centres unmarked) | 5.21 |
| Cc1ccc(-n2sc3ccccc3c2=O)cc1S(=O)(=O)N1CCCCC1 | 16.3 |
| COc1cccc(-c2c(-c3cc(OC)cc(OC)c3)n(C)c3ccc(-c4ccc(OC)nc4)cc23)c1 | 6.9 |
| CC(C)N(Cc1cc2ccccc2[nH]c1=O)C(=O)C(C)(C)C | 6.86 |
| COC(=O)CN1C(=S)N(c2ccc(F)cc2)C(=O)C1CC(=O)Nc1ccc(F)cc1 (centres unmarked) | -33.6 |
| CN(CC(=O)Nc1ccc(C(N)=O)cc1)CC(=O)Nc1ccccc1Cl | -5.04 |
| CCOC(=O)c1nn(-c2cccc(Cl)c2)c(C)c1C(C)=O | -3.38 |
| COCCSc1ccccc1C(=O)Nc1cccnc1 | 3.15 |
| C=CCNC(=O)c1n[nH]c2c1CC(C(C)(C)CC)CC2 (centres unmarked) | 7 |
| COCCCn1c(=O)c2ccccc2n(CC(=O)Nc2ccc3c(c2)OCCO3)c1=O | 12.4 |
| Cc1nn(CC2CC2)c(=O)n1N(C)c1ncc(C(F)(F)F)cc1Cl | -10 |

| SMILES | hERG current change (%, negative = inhibition) at 10uM [%] |
| --- | --- |
| CC(=O)N1CCC(C(=O)Nc2ccc(S(=O)(=O)N3CCC(C)CC3)cc2)CC1 | -3.19 |
| O=C(NC(=S)N(Cc1ccccc1)Cc1ccccc1)c1ccccc1F | 18.5 |
| COc1cccc(C2C3=C(CC(C)(C)CC3=O)Nc3cc(OC)c(OC)cc32)c1 (centres unmarked) | 12.8 |
| CCn1nc(C)c(NC(=O)CCCSc2nc(-c3ccco3)cc(C(F)(F)F)n2)c1C | -6.15 |
| C=C(C)Cn1c(NCCC)nc2c1c(=O)n(C)c(=O)n2C | 0.937 |
| COc1ccc(Cl)cc1NC(=S)Nc1cccnc1 | 12.3 |
| CCOC1=C/C(=C/c2c(N)n3oc(C)cc3nc2=O)C=CC1=O | 16.7 |
| CCOC(=O)c1cnc(-n2cc(C)cn2)nc1NCc1ccc2c(c1)OCO2 | -15.6 |
| CCCC(=O)n1nc(-c2ccc(Cl)cc2)nc1SC | 22.1 |
| CCCOc1ccc(Cc2nn[nH]n2)cc1 | 10.8 |
| COc1cccc(NC(=O)Cn2c3ccc(F)cc3c3nc4n(c(=O)c32)CCS4)c1 | 12.1 |
| Cc1ccc(C(=O)Cn2c(N3CCOCC3)nc3c2c(=O)n(C)c(=O)n3C)cc1 | -1.58 |
| CCCCNC(=O)C1CC(=O)N(CCc2ccc(C)cc2)C1 (centres unmarked) | -0.519 |
| N#CCCN1CCN(S(=O)(=O)c2ccc3c(c2)CCC3)CC1 | 6.04 |
| CS(=O)(=O)N(CC(=O)Nc1ccccc1-c1ccccc1)c1cccc(F)c1 | 8.25 |
| C/C(O)=c1/c(=O)nc2cccc3c2=c1c1ccccc1c3=O | -8.5 |
| CCN(CC)S(=O)(=O)c1cccc(C(=O)N2CCCc3ccccc32)c1 | -4.48 |
| Cc1cc(C)nc(SCC(=O)c2ccc3c(c2)OCCO3)n1 | -13.3 |
| COc1cc2c(cc1OC)CN(CC(=O)NC(=O)NC(C)(C)C)CC2 | 6.61 |

| SMILES | hERG current change (%, negative = inhibition) at 10uM [%] |
| --- | --- |
| Cc1ccc(CS(=O)(=O)c2ccc(C(=O)N3CCCCC3)cc2[N+](=O)[O-])cc1 | 0.513 |
| CCCn1c2ccccc2c2cnn(CC(=O)NCCCN3CCCCC3CC)c(=O)c21 (centres unmarked) | -62.2 |
| Cc1cc(-c2nc(-c3ccc(C(C)(C)C)cc3)no2)no1 | 16.4 |
| COC(=O)c1cc(NC2c3ccccc3C(=O)N2c2cccnc2)cc(C(=O)OC)c1 (centres unmarked) | -27.7 |
| CC(C)Oc1ccc(CNC(=O)C2CCN(C(=O)N3CCOc4ccccc43)CC2)cc1 | -17.8 |
| COc1cc(N=Nc2ccc3ccccc3c2)ccc1O | 9.15 |
| COc1ccccc1N1CCN(C(=O)C(=O)c2c(C)[nH]c3ccccc23)CC1 | 9.07 |
| O=C(NCc1ccc(F)cc1)c1ccc(S(=O)(=O)N2CCCCC2)cc1 | 8.36 |
| Cc1ncc([N+](=O)[O-])n1CCN1C(=O)c2ccccc2C1=O | 3.77 |
| CC(OC(=O)C1=COCCO1)C(=O)NC(C)c1ccc(Cl)cc1Cl (centres unmarked) | -3.25 |
| O=C(COC(=O)c1ccc2ccccc2c1)NCCCc1ccccc1 | 17.7 |
| CCN1CCN(c2nnc(-c3ccc(F)cc3)c3ccccc23)CC1 | -48.4 |
| O=[n+]1c2c(n([O-])c3cc(Cl)ccc31)CCCC2 | -0.318 |
| COc1cc(Br)c(C(=O)c2nccc3cc(OC)c(OC)cc23)cc1OC | -14.5 |
| CN(C)C(=O)c1ccc(-c2cc(C(F)(F)F)n(C)n2)s1 | 5.87 |
| CCn1c(=O)cc(OCC(=O)N2CCCC2)c2ccccc21 | 7.8 |
| COc1ccc(NS(=O)(=O)c2ccc(NC(=O)c3ccc(N(C)S(C)(=O)=O)cc3)cc2)cc1 | 11.7 |
| CC(C)CNC(=O)CN(c1ccccc1)S(=O)(=O)c1ccccc1[N+](=O)[O-] | 2.38 |
